Measured values reported in the supplement of paper PMC5499739.
Over roughly 16,000 sequences, “Z-score” has its median near -0.37; the highest 2% begin near 3.2. The list shows a part of the results.

system: RBM10 RRM1-ZnF (GST-tagged construct); assay: RNAcompete 7-mer binding Z-score; higher = stronger binding preference
Summary of the method: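 A one-sided Z-score for enrichment, taken across the probes containing each heptamer motif, was assigned to every such motif. The RNA came from a designed pool of 241 399 sequences up to 41 nt (1.5 nmol), bound by 20 pmol of GST-tagged RBM10 constructs in 1 ml Hepes pH 7.8 buffer with glutathione Sepharose beads for 30 min at 4°C. Four 2-min washes at 4°C preceded identification of bound RNA by microarray hybridisation.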

Sequence | RNAcompete 7-mer binding Z-score
AGCCGGA | 0.095
UAUCCAG | -0.665
AACGCGC | -0.366
AAGCGAG | 1.75
UCCCGAC | -0.772
CCCGUUC | -0.759
AGUUUGA | -0.396
GCUAUCC | -0.73
GGUGUCA | 1.12
GCAGUCA | -0.275
CGAGAUG | 0.173
UCAUGCC | -0.857
CCGCCUG | -0.464
UACGAGG | 0.849
ACUUUGA | -0.769
UCCUUCA | -0.756
AACAGCG | 0.082
GCUAUAU | -0.516
GUUAUUU | -0.545
AGCAUCU | -0.818
GUAACGA | 0.095
UGAAGUA | 0.0788
GUGAGUU | 0.43
UCCGUAC | -0.642
UUCUCCU | -0.789

Sequence | RNAcompete 7-mer binding Z-score
CUGGGUG | 1.83
AUAACCA | -0.746
UGGUACA | 0.673
GUCGAAU | -0.23
AACGCAA | -0.197
UCUUACU | -0.746
CACAGCA | -0.542
UGUUCAU | -0.565
CAAGCAC | -0.607
CCACAGA | -0.464
UCGGACC | -0.629
GCCUCAG | -0.694
CGCGGAC | 0.069
CCCAGAC | -0.629
AUAGAGA | 0.537
GCUCAGC | -0.415
UGGACGG | 3.09
CAUACGC | -0.513
CAAGGCA | 0.647
CUUGACU | -0.841
CGCGGUA | 0.348
ACCCACU | -0.675
AGCACUC | -0.789
UAUCGGA | 0.0268
UUAAUCU | -0.756

Sequence | RNAcompete 7-mer binding Z-score
UAAAGAC | -0.175
CGUUAAG | -0.324
CACCUGG | -0.269
GCAGGCU | 0.495
UUCAUUC | -0.639
UGCUCCA | -0.594
GGACAGA | 1.32
GGCCACG | -0.126
CCGCCGA | -0.464
CGGUGGU | 1.64
UUUUCCC | -0.844
CGCAUGA | -0.129
GUGCGAU | -0.0999
CUGCUCA | -0.75
GGUCGUC | 0.212
GCCCUGG | 0.105
CUUAGCC | -0.873
AUGCUCG | -0.376
CUGGAAU | 0.0625
CACUGGA | 0.000789
UGUAGAU | 0.166
CAGAUUG | -0.227
UGCGCAC | -0.334
CAGAGCC | -0.526
CACCACU | -0.409

Sequence | RNAcompete 7-mer binding Z-score
UAGUCCA | -0.626
GCCUUAA | -0.759
CUGCUCG | -0.73
ACCAGCU | -0.811
ACUAACC | -0.873
AUACCCG | -0.581
UAACUAG | -0.207
UAACAUU | -0.383
GCCCGGG | 0.472
GGGGUAU | 3.17
ACCCAUG | -0.636
AUCGAUU | -0.565
AAAUUCG | -0.574
UUUAGUG | -0.0707
AAAAAAA | -0.552
CACCCUA | -0.522
CGCUUAA | -0.776
AAUGAGA | 0.316
UUCAUCA | -0.717
AAGGAGA | 3.37
GUACAAA | -0.139
AAGUAGU | 0.00729
AUCUAUA | -0.724
AGAUCGG | 0.608
CGGGGAG | 2.57

Sequence | RNAcompete 7-mer binding Z-score
UCGCCAG | -0.353
UCGCAUA | -0.457
AAACUGA | -0.34
CUGGAAA | 0.209
AGUUCCA | -0.704
CUUUUCA | -0.818
AUCGCUG | -0.474
UGCCCCG | -0.389
UCAACCU | -0.776
UGGCUAC | -0.00896
UCACGUG | -0.253
UGCUUCA | -0.707
CUUAGAC | -0.668
CUAGUCC | -0.743
UUGCGGU | 0.225
UUAAGGG | 1.89
CACUCCC | -0.591
UUCGUUC | -0.727
CUUCAAC | -0.72
AUGGGUA | 3.54
UGCAUAG | 0.03
CUCAGGG | 0.673
UUCCUCC | -0.769
UACCGAA | -0.604
CCCAUUU | -1.09

Sequence | RNAcompete 7-mer binding Z-score
AUGCGCC | -0.526
CUCUAUA | -0.73
CAUAUGA | -0.168
GUUCACC | -0.574
CCUGAUA | -0.704
GAGGUAG | 2.67
GUGUAAC | 0.683
CUCUUGA | -0.772
GUAUGUU | -0.0414
GAUCCAG | -0.21
GCCUCUA | -0.756
UAGUACG | 0.121
AUCGGGC | 0.719
GGAUACA | 2.36
AGCUGAG | 0.316
CCUACCC | -0.418
UUAAGGC | -0.0187
CCUCGAC | -0.724
ACUACUC | -0.714
UCAUAAC | -0.568
GACUGAU | -0.269
UCGGAUG | 0.755
UGUACGA | 0.131
UGCUGAA | -0.314
AUGCUUG | -0.441

Sequence | RNAcompete 7-mer binding Z-score
UCAUCAC | -0.863
AUAUCCC | -0.704
UCUUCUU | -0.763
CGGGACU | 1.12
UAUAGUA | -0.0447
GAAGAUU | -0.0317
CCGGGCC | -0.548
CGAAAAC | -0.509
GUUGUUC | -0.347
GUCACGA | -0.324
AAUUUCA | -0.776
AGAGCAG | 0.699
AGCACUA | -0.132
CGUGAGG | 1.35
ACCAAUA | -0.685
GUAUUAA | -0.197
GGUCGGG | 2.43
GCAGCCC | -0.496
UGUCUAU | -0.727
GUUUAGA | 0.0495
AUCAGAA | -0.188
GAGAACA | 0.209
GGAUCGA | 0.664
CAAAUUG | -0.392
AAGGACG | 2.51

Sequence | RNAcompete 7-mer binding Z-score
GCCACGA | -0.35
GCCGUAU | -0.571
UGUUUCU | -0.418
GUUGGGG | 4.26
ACGGGCU | 1.26
GGGAGGC | 2.92
CGUCUGA | -0.701
AACUGGC | -0.00246
GUGCAUU | -0.0902
UAGUGUU | 0.0365
GUCCUGG | 0.319
CCGGGUG | 1.47
UAAGACC | -0.675
AUGAGGA | 2.06
GGGCAUC | 1.34
UUCGACG | -0.548
CAUUGCA | -0.636
GAACGCC | -0.418
GAGCUUG | 0.0203
UCAUGUC | -0.776
ACAUCAU | -0.519
GUACCGA | -0.425
UACGAAG | -0.136
AAAUUGG | 1.02
GCUCGAU | -0.402

Sequence | RNAcompete 7-mer binding Z-score
CGUCAGU | -0.357
GGAAUUC | 0.121
ACCCUGU | -0.759
UCCGAGA | -0.672
AAGAGGC | 0.654
GUGACCC | 0.0333
ACACCGC | -0.545
UACAACU | -0.594
UUUUAGA | -0.561
AAUGCAC | -0.272
GUGGGUU | 3.11
CCGCUUA | -0.922
CCCCCCU | -0.279
UAAUUUC | -0.88
AUAUGUC | -0.461
UUUAUGA | -0.529
GACGAAC | -0.181
CACAUCA | -0.487
GUUAUGU | 0.0463
ACGCUUA | -0.704
AUUCAAC | -0.766
GUUCUGG | 0.0918
UCUAUAC | -0.821
CUGCUUC | -0.72
CGGGGCU | 1.71

Sequence | RNAcompete 7-mer binding Z-score
CACCGGU | 0.196
AGCCUAG | -0.47
AGCAACU | -0.376
GUCCUGC | -0.594
CGCUCAG | -0.47
CAGUCGU | -0.522
CUGGGAU | 1.11
GGCAAAG | 1.36
GAGGAGC | 1.8
AGGCUAU | -0.262
UCAACAU | -0.506
AUUGGAG | 2.25
GCAGACA | 0.056
GUUCUCC | -0.587
UUGUACG | -0.279
CGCAAAG | -0.214
GGUUUUG | 2.03
AACUUGU | -0.597
CACUUUU | -0.85
UAGGUGU | 1.7
GUCACCA | -0.493
AAGCCCA | -0.681
CAGAUAC | -0.584
CGAACGC | -0.34
GGUCAGG | 2.79

Sequence | RNAcompete 7-mer binding Z-score
CCUAACG | -0.707
GCAGGUU | 1.38
CCUGCGG | 0.27
GCUUAUA | -0.513
AGGACAG | 1.09
CGUAGUA | -0.0739
CGGAGAC | 0.508
UAUUCGC | -0.753
UUCUGAC | -0.789
CUGAACU | -0.623
CGUGGGG | 3.65
UAGGGUU | 3.33
AGGCACA | -0.11
ACGGCCG | -0.461
AGAAAUA | -0.288
CCGACCA | -0.867
GUACAUU | -0.344
GACCGUU | -0.902
UGACGAU | 0.0203
AAGUGUA | 0.774
UUCAAAA | -0.691
CACCCCG | 0.387
AUGCACG | 0.0235
GAUGAGG | 3.56
AUUGCCU | -0.857

Sequence | RNAcompete 7-mer binding Z-score
CCAAGAA | -0.444
GAUAAAA | 0.0203
UCGCGGU | -0.188
CGCGGGA | 1.05
GCUAUAA | -0.409
GUGCGUC | 0.0365
UCUAUGG | -0.383
AUCUUAC | -0.717
ACACCCA | -0.73
CGAGACG | 0.199
AGUCUAU | -0.379
UGCCAAU | -0.681
AGGUUGA | 1.64
CGAUUCA | -0.639
AAGCAGU | -0.145
UCGUGAU | -0.389
CAAUGCG | -0.0512
AAAACAG | 0.095
CGGCCGA | -0.613
ACAGUGU | 0.017
CGCAGCA | -0.223
ACUUGAA | -0.535
CCACUUA | -0.873
CCCUGAA | -0.474
ACGUACU | -0.571

Sequence | RNAcompete 7-mer binding Z-score
GGCGAUC | 0.14
AGUGGAA | 3.24
ACGGGCC | 0.128
UCCUUCC | -0.681
AGUUGAA | 0.592
CCAACUC | -0.727
UUGAUCC | -0.785
CCAUCGU | -0.61
GCGAAUU | -0.132
UCGCUUC | -0.756
UCAGCAG | -0.00896
CGUCCCA | -0.587
UACUCCU | -0.798
CGGCUUA | -0.383
AAUUGCU | -0.506
AAGUACU | -0.561
UGGGGAU | 3.57
AAACGGU | 1.16
CGUCGAG | -0.0414
CCACUGA | -0.555
CAUAACG | -0.5
ACAACGU | -0.321
UCCUAAG | -0.483
CGGUAGA | 0.933
CCGCCCA | -0.428

Sequence | RNAcompete 7-mer binding Z-score
GCUAUUC | -0.772
GACUUUA | -0.724
GGAAUUG | 2.02
AGGAUUC | -0.214
CCUCGGG | 0.423
AGAGGCA | 0.15
GCUUCUU | -0.802
CCCUUGG | -0.269
AGACGGG | 1.62
UGUUGGU | 0.927
UUGUGGU | 1.07
AACUCAC | -0.591
AUUGGUA | 1.27
GCAAGUC | -0.415
GGCGGAA | 1.51
GAGGUAU | 1.78
UCUGACC | -0.733
GCUUAAC | -0.457
CUCGCGA | -0.759
ACUAGCU | -0.535
ACUAUAU | -0.571
UGGCGUC | 0.173
GUAAGAA | 0.465
AACCUGC | -0.74
AGCUCGC | -0.584

Sequence | RNAcompete 7-mer binding Z-score
UACAAAU | -0.357
GAAGAGU | 1.39
GUCUUAA | -0.681
CAGUGUG | 0.43
CAAACAG | -0.431
UCAGGUC | 0.00404
CACCUAA | -0.652
GCAGAAG | 1.15
AUACACU | -0.47
AUUCUCG | -0.694
UUUAAGA | -0.438
GGUUAGU | 1.7
AUAUGCU | -0.5
ACUGCGU | -0.389
AUAGUCA | -0.269
GUCACAU | -0.49
CCUUUCC | -0.886
